Measurements from PubChem BioAssay AID720709 (National Center for Advancing Translational Sciences (NCATS), 2013).
Hit rate of the full screen: of about 360,000 compounds, about 520 (0.14%) were called active. The shares of active, inactive and inconclusive entries below differ from those in the screen. The call rests on the fitted dose curve; in most records, active means well fitted inhibition curve with a large enough effect; inconclusive means small, poorly fitted or top-dose-only effect; inactive means no such curve, though single readings can be large or run the other way. Potencies of inconclusive entries are left out as doubtful fits.

biological target: Rap guanine nucleotide exchange factor 3 (Homo sapiens) (UniProt O95398); assay: qHTS for Antagonist of cAMP-regulated guanine nucleotide exchange factor 3 (EPAC1): primary screen; details: EPAC1 GEF assay, Rap1b-BODIPY-GDP exchange fluorescence; activity change, negative = inhibition: at 115 µM (top of the series); further: nearly all actives have a fitted effect of over 50% in size;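 on activity change, negative = inhibition: plate controls were vehicle for no effect and positive control for full effect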
UniProt O95398, sequence (O95398 whole entry, looked up): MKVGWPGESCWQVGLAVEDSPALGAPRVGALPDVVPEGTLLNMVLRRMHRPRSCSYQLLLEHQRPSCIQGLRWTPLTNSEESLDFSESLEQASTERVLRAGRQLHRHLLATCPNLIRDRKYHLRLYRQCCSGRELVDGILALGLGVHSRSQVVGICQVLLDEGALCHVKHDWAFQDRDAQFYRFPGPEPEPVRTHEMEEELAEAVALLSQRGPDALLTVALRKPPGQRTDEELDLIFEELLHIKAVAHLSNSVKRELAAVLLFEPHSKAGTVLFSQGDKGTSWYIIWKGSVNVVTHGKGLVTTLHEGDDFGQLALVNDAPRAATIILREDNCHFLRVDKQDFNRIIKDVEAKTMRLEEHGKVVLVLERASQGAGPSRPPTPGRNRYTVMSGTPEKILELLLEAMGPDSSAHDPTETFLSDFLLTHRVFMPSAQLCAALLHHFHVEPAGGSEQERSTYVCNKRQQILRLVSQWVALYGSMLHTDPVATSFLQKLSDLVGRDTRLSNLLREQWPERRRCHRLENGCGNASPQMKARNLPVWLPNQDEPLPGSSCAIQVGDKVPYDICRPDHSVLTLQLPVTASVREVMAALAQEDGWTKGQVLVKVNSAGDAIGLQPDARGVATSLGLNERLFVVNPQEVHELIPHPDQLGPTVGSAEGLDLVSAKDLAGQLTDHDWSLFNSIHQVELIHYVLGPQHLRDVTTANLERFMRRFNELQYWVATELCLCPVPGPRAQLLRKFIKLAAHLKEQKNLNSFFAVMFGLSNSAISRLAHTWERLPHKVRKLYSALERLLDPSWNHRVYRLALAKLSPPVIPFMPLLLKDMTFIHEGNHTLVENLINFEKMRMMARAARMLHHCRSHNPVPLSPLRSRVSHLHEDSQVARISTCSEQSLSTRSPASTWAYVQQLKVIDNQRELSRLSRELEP
Potency means the concentration at half of the fitted maximal effect; tags describe the fitted curve by direction and shape.

| SMILES | Potency | activity change, negative = inhibition |
| --- | --- | --- |
| CCOC(=O)c1c(S(=O)(=O)NCC(=O)Nc2cc(C)ccc2C)c(C)n(C)c1C | inconclusive [inhibitor, full curve, poor fit] |  |
| CS(=O)(=O)N1CCN(c2ccccc2NC(=S)NC(=O)c2cccs2)CC1 |  | inactive: 4.84% |
| Cc1cccc(CCNC(=O)Cn2ncc3c([nH]c4ccc(C)cc43)c2=O)c1 | inconclusive [inhibitor, partial curve] |  |
| O=C1/C(=C/C=C/c2ccco2)SC(=S)N1c1ccc(O)cc1 | inconclusive [inhibitor, single point] |  |
| Cc1cc(C(=O)NNC(=O)/C=C/c2ccco2)c(C)o1 | inconclusive [inhibitor, partial curve] |  |
| O=C1CSC(=S)N1N=Cc1c(O)ccc2ccccc12 | inconclusive [inhibitor, partial curve] |  |
| Cc1nn(CC(=O)Nc2ccc3c(c2)oc2ccccc23)c(=O)c2ccccc12 | inconclusive [inhibitor, single point] |  |
| Cc1ccc(OCC(=O)Oc2cccc(C)c2C)cc1 | inconclusive [inhibitor, partial curve] |  |
| O=C(Nc1ccccc1)N(CCc1ccncc1)C1CCCCC1 | inconclusive [inhibitor, single point] |  |
| Cn1nc([N+](=O)[O-])nc1Sc1ccc(C(C)(C)C)cc1 | inconclusive [inhibitor, partial curve] |  |
| CC(C)C(=O)Nc1ccc([N+](=O)[O-])c(C(F)(F)F)c1 |  | inactive: 15.5% |
| O=C(O)c1ccc(Nc2nc3ccccc3nc2NS(=O)(=O)c2cccs2)cc1 | inconclusive [inhibitor, single point] |  |
| Cc1[nH]nc(SCC(=O)NCc2ccccc2)c1[N+](=O)[O-] | inconclusive [inhibitor, single point] |  |
| Nn1cnnc1N/N=C\c1ccc(-c2ccccc2[N+](=O)[O-])o1 |  | inactive: -10.1% |
| NC(=S)NN=C1c2ccccc2-c2ccccc21 |  | inactive: 8.52% |
| CC(NC(=O)CCCCCNC(=O)N1CCn2c1nc1ccccc12)c1ccccc1 (stereo not drawn) | inconclusive [inhibitor, partial curve] |  |
| Cc1ccc2nc(Nc3ccccc3)c(/C=N/O)c(=O)n2c1 | inconclusive [inhibitor, partial curve] |  |
| O=C(Nc1ccccc1Br)c1ccc2nccnc2c1 | inconclusive [inhibitor, single point] |  |
| O=c1[nH]c(/C=C\c2cccc(Cl)c2)nc(O)c1[N+](=O)[O-] | inconclusive [inhibitor, partial curve] |  |
| COc1ccc(-c2n[nH]c(C)c2-c2ccccc2OC)c(O)c1 | inconclusive [inhibitor, full curve] |  |
| NS(=O)(=O)c1ccc(CCNC(=O)CNC(=O)COc2ccccc2)cc1 | inconclusive [inhibitor, single point] |  |
| COc1cc(CNn2cnnc2)ccc1OCC(=O)NC(C)(C)C |  | inactive: -5.23% |
| CCOC(=O)COn1c(=O)c(-c2cccs2)[n+]([O-])c2ccccc21 | inconclusive [inhibitor, partial curve] |  |

| SMILES | Potency | activity change, negative = inhibition |
| --- | --- | --- |
| COc1ccc(NC(=O)CN(C)S(=O)(=O)c2ccc3c(c2)OCCO3)c2ncccc12 | inconclusive [inhibitor, partial curve] |  |
| O=C(CCCc1ccccc1)Nc1ccc(S(=O)(=O)N2CCOCC2)cc1 |  | inconclusive: -14.8% [inhibitor] |
| O=C(NC1CC1)C1CCN(C2CCN(C(=O)/C=C/c3cccc(F)c3F)CC2)CC1 | inconclusive [inhibitor, single point] |  |
| CC(=O)Nc1ccc(OCC(O)CN2CCN(c3ccc(F)cc3)CC2)cc1 (stereo not drawn) | inconclusive [inhibitor, partial curve] |  |
| CC(C)(C)c1ccc(C(O)c2ncc(-c3ccccc3)[nH]2)cc1 (stereo not drawn) | inconclusive [inhibitor, partial curve] |  |
| CC1(C(=O)Nc2cccc3cccnc23)CCN1Cc1ccccc1OC(F)F (stereo not drawn) |  | inactive: -26.8% |
| COC(=O)[C@]12CCCCC=C1N(Cc1cccc3ccccc13)C(=O)[C@H](CC(=O)NCCCN1CCCC1=O)C2 |  | inactive: 9.92% |
| COc1cccc(C(NC(C)=O)c2nc(-c3cccc(C(=O)O)c3)cs2)c1 (stereo not drawn) | inconclusive [inhibitor, partial curve, poor fit] |  |
| CN(CC(=O)Nc1ccc(F)cc1)C(=O)COC(=O)c1cc(S(=O)(=O)N(C)C)ccc1N1CCCC1 | inconclusive [inhibitor, partial curve] |  |
| O=C(/C=C/c1ccc2c(c1)OCO2)c1ccccn1 |  | inactive: -11.1% |
| CCOC(=O)c1cc(-c2ccccc2)sc1NC(=O)C(C)N1C(=O)c2ccccc2C1=O (stereo not drawn) | inconclusive [inhibitor, partial curve] |  |
| O=S(=O)(Nc1ncccn1)c1ccc(NS(=O)(=O)c2cc(Cl)ccc2Cl)cc1 | inconclusive [inhibitor, partial curve] |  |
| CCCCn1nnnc1C(c1cc2ccccc2o1)N1CCN(c2cc(C)nc3ccccc23)CC1 (stereo not drawn) |  | inactive: -4.48% |
| O=c1c2ccc(F)cc2sn1-c1ccccc1 |  | inactive: 5.92% |
| Cc1noc(C)c1NC(=O)NCCN1CCN(Cc2ccccc2)CC1 | inconclusive [inhibitor, full curve, poor fit] |  |
| N#Cc1c(-c2ccccc2)nc(SCc2cccc(Cl)c2)[nH]c1=O | inconclusive [inhibitor, partial curve] |  |
| O=C(O)c1c2c(nc3ccccc13)/C(=C/c1ccc(O)cc1)CC2 | inconclusive [inhibitor, single point] |  |
| Cc1ccc(C2CC2c2n[nH]c(=S)n2-c2cccc(C)c2)cc1 (stereo not drawn) |  | inactive: -25.2% |
| CCCc1cc(=O)oc2c3c(cc(OCC(=O)NCc4ccncc4)c12)OC(C)(C)CC3 |  | inconclusive: -31.4% [inhibitor] |
| O=C(NCc1ccc(F)cc1)C(=O)NCC(c1ccco1)N1CCOCC1 (stereo not drawn) | inconclusive [inhibitor, single point] |  |
| O=C(NCCc1ccccc1)c1oc2ccccc2c1COc1ccccc1 | inconclusive [inhibitor, single point] |  |
| COc1ccc(-c2oc3c4c2C(=O)OCCOC4CCC3)cc1 (stereo not drawn) | inconclusive [inhibitor, single point] |  |
| Cc1cc(=O)[nH]c(SCC(=O)Nc2nnc(SCc3ccccc3)s2)n1 | inconclusive [inhibitor, partial curve] |  |

| SMILES | Potency | activity change, negative = inhibition |
| --- | --- | --- |
| C[C@]1(C2CCCC2)Cc2cc(OCC(=O)O)c(Cl)c(Cl)c2C1=O |  | inactive: -5.93% |
| Cc1cc(C)nc(SSc2nc(C)cc(C)n2)n1 |  | inactive: 2.68% |
| CCn1nc(NC(=O)C(C)C)c2cc3ccc(C)cc3nc21 |  | inactive: -13.2% |
| Nc1ccccc1C#Cc1ccc([N+](=O)[O-])cc1 | inconclusive [inhibitor, single point] |  |
| Cc1cccc(C)c1OCC(O)CN1CCCCC1 (stereo not drawn) | inconclusive [inhibitor, partial curve] |  |
| O=C1/C(=C/c2ccccc2[N+](=O)[O-])COc2ccccc21 |  | inactive: -25.7% |
| COCCNc1nc(NCc2ccc(NC(C)=O)cc2)c2sc(-c3ccccc3)cc2n1 |  | inactive: -25.4% |
| O=c1c([N+](=O)[O-])cn(Cc2ccccc2)c(=O)n1Cc1ccccc1 | inconclusive [inhibitor, single point] |  |
| COC(=O)CNC(c1ccccc1)c1cc(C)ccc1NS(=O)(=O)c1ccc(C)cc1 (stereo not drawn) | inconclusive [inhibitor, partial curve, poor fit] |  |
| C=C(C)CNC(=S)NNC(=O)CCn1c2ccc(Cl)cc2c2cc(Cl)ccc21 | inconclusive [inhibitor, partial curve] |  |
| Cn1nnnc1Sc1ncnc2scc(-c3ccc4c(c3)OCO4)c12 | inconclusive [inhibitor, single point] |  |
| COc1ccc(C2Nc3ccccc3C(=O)N2c2ccc(C)cc2)cc1Cn1cc([N+](=O)[O-])cn1 (stereo not drawn) | inconclusive [inhibitor, partial curve, poor fit] |  |
| CCCN(CC(=O)Nc1ccccc1OC)C(=O)c1cc(S(=O)(=O)NCc2ccccc2)ccc1C |  | inactive: -15% |
| O=C(NC(N1CCOCC1)C(Cl)(Cl)Cl)c1ccccc1Cl (stereo not drawn) | inconclusive [inhibitor, single point] |  |
| O=C(Nc1cccc(S(=O)(=O)N2CCCCC2)c1)c1ccc2ccccc2n1 | inconclusive [inhibitor, single point] |  |
| CCOc1ccc(N(C)Cc2cc(=O)oc3ccc(OCC)cc23)cc1 | inconclusive [inhibitor, partial curve] |  |
| COC(=O)C1=C(C)N(CCc2cc(OC)c(OC)c(OC)c2)C(=O)N[C@H]1c1ccccc1 |  | inactive: 14% |
| COc1ccc(C(CC(=O)c2ccc(C)cc2)C(C#N)C#N)cc1OC (stereo not drawn) | inconclusive [inhibitor, partial curve] |  |
| COc1ccc(OC)c(C2Nc3c(Cl)ccc(C(=O)O)c3C3C=CCC32)c1 (stereo not drawn) | inconclusive [inhibitor, partial curve, poor fit] |  |
| O=C(Cn1c(NCCCO)nc2ccccc21)c1ccc(Cl)cc1 | inconclusive [inhibitor, full curve, poor fit] |  |
| CCCCCCCCCC1(CC(=O)OCC)SCCN1C(N)=O (stereo not drawn) |  | inactive: -12.7% |
| O=C(OCc1cnc(Cl)s1)c1cccc(Cl)c1 | inconclusive [inhibitor, partial curve] |  |
